# Laboratory results as given in PubChem BioAssay AID651820 (National Center for Advancing Translational Sciences (NCATS), 2012).
# Where “and” joins values, the source holds several entries; their conditions need not be identical. Equal values may be shown once. The campaign covered roughly 340,000 compounds. About 12,000 (3.5%) were called active. The shares of active, inactive and inconclusive entries below differ from those in the screen. Calls come from the whole dose curve; as a rule, active = well fitted inhibition curve with a large enough effect; inconclusive = small, poorly fitted or top-dose-only effect, or another doubt; inactive = no such curve, though single readings can be large or run the other way. A potency beside an inconclusive call is a rough fit, not a confirmed value.
# Assay: qHTS Assay for Inhibitors of Hepatitis C Virus (HCV)
# Details: Huh7.5.1 HCVcc-Cre (HCVcc is cell-culture hepatitis C virus) infection, luciferase reporter, 44 h; activity change, negative = inhibition: at 41.8 µM (top of the series) unless noted
# How it was run: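 Whole-lifecycle infectious HCVcc-Cre system; cells 1,000/well, compound then virus (~0.5 moi) added 4 h after plating, 44 h culture. Luciferase read 15 sec following 15 min substrate incubation, room temp.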
# % is set by controls: 0 for no effect and ±100 for the full control effect; potency is the fitted concentration of half-maximal effect; tags give direction and shape of the fitted curve.
Compound,"activity change, negative = inhibition",Potency
O=C(NCc1ccc2c(c1)OCO2)Nc1ccc2nsnc2c1,inactive: -20%,
COc1cccc(CC2(CO)CCN(Cc3ccc4cccc(F)c4n3)CC2)c1,,"inconclusive: 22.4 µM [inhibitor, single point]"
CN(Cc1nccs1)C(=O)c1cc(COc2cccc3cnccc23)on1,,active: 6.31 µM
CCN1CCN(C(c2cccs2)C(C)NC(=O)NC2CCCCC2)CC1 (stereo unspecified),inactive: 20.6%,
CCCCNC(=O)N1CCOCCOCCN(C(=O)NCCCC)CCOCCOCC1,,"inactive and inconclusive: 562 nM [inhibitor, full curve]"
Cc1ccc(C(O)CN2C3=NCCCN3c3ccccc32)cc1 (stereo unspecified),,"inconclusive: 3.55 µM [inhibitor, full curve]"
O=S(=O)(c1ccc(F)cc1)N1CCN(C(=S)NCCc2ccccc2)CC1,inactive: 4.92%,
CN(CC(=O)Nc1sc2c(c1C#N)CCCCC2)Cc1nc2ccccc2c(=O)[nH]1,,"inconclusive: 31.6 µM [inhibitor, single point]"
CCOc1ccccc1CN1CCC(N2CCC(C(=O)NC3CC3)CC2)CC1,inactive: -20.5%,
COc1ccccc1NC(=S)N(Cc1ccccn1)Cc1ccccc1Cl,inactive: 12%,
O=C(Cc1ccc(Cl)c(Cl)c1)Nc1ccc(SC(F)F)cc1,,"inconclusive: 15.8 µM [inhibitor, single point]"
CN(C(=O)c1cc(S(=O)(=O)N2CCCCC2)c[nH]1)C1CCCCC1,,"inconclusive: 12.6 µM [inhibitor, single point]"
CC(=O)NS(=O)(=O)c1ccc(NC(=O)C(C)NS(=O)(=O)/C=C/c2ccccc2)cc1 (stereo unspecified),inactive: 19.9%,
Cc1cc(O)c(-c2cc(C(=O)NCCc3ccc(S(N)(=O)=O)cc3)[nH]n2)cc1C,,"inconclusive: 31.6 µM [inhibitor, single point]"
CCN(CCCNC(=O)c1ccc2c(c1)NC(=O)CN2C)c1cccc(C)c1,,"inconclusive: 7.08 µM [inhibitor, partial curve]"
O=C(O)c1ccccc1C(=O)Nc1ccccc1NC(=O)c1ccccc1C(=O)O,inactive: 19.1%,
O=C1NC(=O)C(=Cc2ccc(-c3ccc(Cl)cc3)o2)C(=O)N1,inactive: 9.08%,
O=C(O)c1c(NC(=O)N(CCO)Cc2ccccc2)sc2c1CCCC2,inactive: -8.96%,
Cc1ccc(C(=O)OCC(=O)c2ccc[nH]2)s1,,"inconclusive: 6.31 µM [inhibitor, partial curve]"
O=C(COc1ccccc1)Nc1cc(NC(=O)COc2ccccc2)cc(C(=O)O)c1,inactive: 14.8%,
CC(=NNC(=S)N1CC2CCC(CC2)C1)c1nccs1,,"inconclusive: 0.794 µM [inhibitor, full curve]"
